PubChem BioAssay AID1030 (National Center for Advancing Translational Sciences (NCATS), 2008)
Screen size: about 220,000 compounds; about 16,000 (7.3%) were called active. Inconclusive results, whose numbers are uncertain, are shown with a selection of clear calls. Calls come from the whole dose curve; as a rule, active = well fitted inhibition curve with a large enough effect (not every such curve was filed as active); inconclusive = small, poorly fitted or top-dose-only effect, or another doubt; inactive = no such curve, though single readings can be large or run the other way. Potencies of inconclusive entries are doubtful fits and often do not repeat.

Target: Aldehyde dehydrogenase 1A1 (Homo sapiens) (UniProt P00352)
Sequence of UniProt P00352 (P00352 whole entry, looked up): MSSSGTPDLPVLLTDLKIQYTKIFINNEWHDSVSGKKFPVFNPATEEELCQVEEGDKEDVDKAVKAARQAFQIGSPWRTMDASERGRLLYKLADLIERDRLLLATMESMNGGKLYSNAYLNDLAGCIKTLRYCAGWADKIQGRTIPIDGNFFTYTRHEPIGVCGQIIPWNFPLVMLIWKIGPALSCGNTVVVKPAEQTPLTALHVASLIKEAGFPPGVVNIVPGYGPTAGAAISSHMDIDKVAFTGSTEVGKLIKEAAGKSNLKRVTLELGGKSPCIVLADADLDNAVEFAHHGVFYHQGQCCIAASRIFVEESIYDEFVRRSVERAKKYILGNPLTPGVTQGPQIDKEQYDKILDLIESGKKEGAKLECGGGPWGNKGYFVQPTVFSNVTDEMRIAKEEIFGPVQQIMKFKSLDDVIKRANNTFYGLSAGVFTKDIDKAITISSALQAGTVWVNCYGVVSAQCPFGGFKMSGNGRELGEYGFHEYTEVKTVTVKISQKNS
Experiment: qHTS Assay for Inhibitors of Aldehyde Dehydrogenase 1 (ALDH1A1);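 for activity, negative = inhibition: plate controls were no enzyme wells and a reference inhibitor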
Conditions: Purified ALDH1A1, NADH fluorescence, propionaldehyde substrate; series mostly up to 75.3 µM; activity, negative = inhibition: at the top concentration
Potency is the fitted concentration of half-maximal effect; tags give direction and shape of the fitted curve.

Potency, active:
C=C(C)COc1ccc(-c2[nH]ncc2-c2ccccc2OC)c(O)c1 25.1 µM
CCC(=O)N1CCc2cc(S(=O)(=O)NCCC(=O)N3CCc4ccccc4C3)ccc21 17.8 µM
CC(C)OC(=O)CN1C(=O)C(C)(C)Oc2ccc(C(=O)NC3CC3)cc21 11.2 µM
COc1ccc(C(=O)COC(=O)C(CCCCN2C(=O)C3C4C=CC(C4)C3C2=O)N2C(=O)C3C4C=CC(C4)C3C2=O)cc1 (stereo not drawn) 10 µM
COC(=O)C1CSc2[nH]c(=O)sc2C1c1ccc(O)c(OC)c1 (stereo not drawn) 2.51 µM
CCCS(=O)(=O)c1nc(S(=O)(=O)c2ccc(C)cc2)c(NCc2ccccn2)s1 14.1 µM
COc1ccc(NC(=S)NNC(=O)C2CC2c2ccc(C)cc2)cc1 (stereo not drawn) 2.51 µM
Cc1cc(C(=O)NCCC2=CCCCC2)ccc1[N+](=O)[O-] 25.1 µM
O=C(NNC(=S)Nc1cccc(C(F)(F)F)c1)c1ccccc1Cl 8.91 µM
CCn1c(SCC(=O)N2CCN(c3ccccc3)CC2)nnc1-c1ccncc1 25.1 µM
CCOC(=O)c1c(-c2ccc(C)o2)csc1NC(=S)NC(=O)c1cccs1 17.8 µM

Potency, inconclusive:
CS(=O)(=O)N(CC(=O)Nc1ccc(Cl)c(Cl)c1)C1CCCCC1 28.2 µM [inhibitor, single point]
C/C(=N\NC(=O)Cc1c(C)[nH][nH]c1=O)c1ccc(Cl)c(Cl)c1 22.4 µM [inhibitor, partial curve]
CCN(CC)C(=O)c1sc2[nH]c(=S)n(-c3ccccc3)c(=O)c2c1C 10 µM [inhibitor, partial curve]
Cc1ccc(NC(=O)CSc2nc(C)c(Cc3ccccc3)c(=O)[nH]2)cc1C 2.24 µM [inhibitor, full curve]
COc1ccc(C(=O)CSc2nc3ccc([N+](=O)[O-])cc3[nH]2)cc1 17.8 µM [inhibitor, partial curve]
Cc1ccc(C)c2[nH]c(=O)c(CN(Cc3ccco3)S(=O)(=O)c3ccc4c(c3)OCCO4)cc12 39.8 µM [inhibitor, single point]
Cc1noc(C)c1C(=O)N1CCC2(CC1)CCN(c1ncccn1)CC2 39.8 µM [inhibitor, single point]
CCC1CSC(Nc2ccc(C(=O)/C=C/c3ccc(OC)c(OC)c3)cc2)=N1 (stereo not drawn) 39.8 µM [inhibitor, single point]
O=C(Cn1c2c(c(-c3ccccc3)cc1=O)CCCC2)N1CCCCCC1 39.8 µM [inhibitor, single point]
COc1cccc(-c2nn(C)c3sc(C(=O)NCc4ccccn4)cc23)c1 28.2 µM [inhibitor, partial curve]
Cc1ccc(-n2nc3c(c2NC(=O)c2cccs2)CSC3)cc1 31.6 µM [inhibitor, single point]
CCc1c(C)sc(NC(=O)c2cccs2)c1C#N 20 µM [inhibitor, partial curve]
O=C1N=c2ccccc2=C1c1sc(NS(=O)(=O)c2ccccc2)nc1O 28.2 µM [inhibitor, single point]
Cc1cc(=O)oc2cc(OCC(=O)NCc3ccccn3)ccc12 3.98 µM [inhibitor, single point]
C=CCn1c(-c2ccc(Cl)cc2)cnc1SC(C)C(N)=O (stereo not drawn) 39.8 µM [inhibitor, single point]
Cn1c(=O)c(-c2cccc(F)c2)nc2cncnc21 44.7 µM [inhibitor, single point]
CC(C)N=C1NN=C(c2cccs2)CS1 39.8 µM [inhibitor, single point]
O=C(CSc1nc2ccccc2o1)Nc1nc2ccc(Br)cc2s1 39.8 µM [inhibitor, single point]
CCOC(=O)C1(Cc2ccccc2)CCN(Cc2cc(=O)c3ccccc3[nH]2)CC1 44.7 µM [inhibitor, single point]
c1ccc(-n2nnnc2-c2cnc(-c3cccnc3)nc2-c2cccs2)cc1 12.6 µM [inhibitor, partial curve]
CN(C)c1ccc(NC(=O)CN2CCC(N3CCCCC3)CC2)cc1 39.8 µM [inhibitor, single point]
N#CC(c1ccc(O)cc1)c1ncc(C(F)(F)F)cc1Cl (stereo not drawn) 5.01 µM [inhibitor, full curve]
CS(=O)(=O)c1nc(-c2ccc(F)cc2)cc(C(F)(F)F)n1 28.2 µM [inhibitor, single point]
COc1ccc(Cl)cc1-c1ccc(C(=O)O)o1 35.5 µM [inhibitor, partial curve]
COc1ccc(C(=O)NC(=O)Nc2ncccc2C)cc1 25.1 µM [inhibitor, partial curve]
Cc1cc(C(=O)OCC(=O)Nc2ccc(S(N)(=O)=O)cc2)c2ccccc2n1 31.6 µM [inhibitor, single point]
CCc1cc(C(=O)NNC(=O)CCl)sc1C 39.8 µM [inhibitor, single point]
COc1cccc(OC)c1NC(=O)c1nc2c(nnn2Cc2ccccc2Cl)c(=O)[nH]1 39.8 µM [inhibitor, single point]
Cc1cc(C)c2[nH]c(=O)c(CN(Cc3ccco3)C(=O)C3CCCO3)cc2c1 (stereo not drawn) 39.8 µM [inhibitor, single point]
COc1ccc(Nc2ncnc3scc(-c4ccc(OC)cc4)c23)cc1 0.224 µM [inhibitor, partial curve]
O=C(Nc1nnc(-c2ccc(Cl)cc2)o1)Nc1ccccc1Cl 31.6 µM [inhibitor, partial curve]
O=C(NC(=S)Nc1ccc2c(c1)OCCO2)c1ccccc1F 39.8 µM [inhibitor, single point]
O=C(N/N=C/c1cccs1)c1cc(-c2ccncc2)nc2ccccc12 44.7 µM [inhibitor, single point]
CCOc1ccc2c(c1)-c1c(ssc1=S)C(C)(C)N2C 28.2 µM [inhibitor, single point]
COC(=O)c1[nH]c2ccc(C)cc2c1NC(=O)CN1CCN(c2ccccc2)CC1 39.8 µM [inhibitor, single point]
COc1ccc2[nH]c(=O)c(CN(CC3CCCO3)C(=S)Nc3cccc(C)c3)cc2c1 (stereo not drawn) 20 µM [inhibitor, partial curve]
O=S(=O)(Nc1cccc2ccccc12)c1cccc2nonc12 31.6 µM [inhibitor, single point]
Cc1nc2ccc(NC(=O)c3ccco3)cc2s1 39.8 µM [inhibitor, single point]
CC1(C)CN(O)CCN1O 23.8 µM [inhibitor, single point]
N#C/C(C(=O)N1CCCCC1)=C1/N=C(N)c2ccccc21 35.5 µM [inhibitor, single point]

activity, negative = inhibition, inactive:
Cc1ccc(Cl)cc1N(CC(=O)Nc1cccc(N(C)S(C)(=O)=O)c1)S(C)(=O)=O -4.77%
CC12CCC3C(CC3(C)C)C(C)(CCC1=O)O2 (stereo not drawn) 15.7%
O=C(O)c1c(Cl)c(Cl)c(Cl)c(Cl)c1C(=O)Nc1ccc2cn[nH]c2c1 9.05% [at 13.5 µM]
O=C1CN(/N=C\c2ccc([N+](=O)[O-])o2)C(=O)N1 -13.9% [at 20.9 µM]
Cn1c(SCc2n[nH]c(=S)n2-c2ccccc2)nnc1-c1ccccc1 10.1%
CCC(CC)NC(=O)COC(=O)c1cc(Br)ccc1Cl 4.37%
O=C(Nc1ccc2c(c1)OCCO2)C1CCN(C(=O)c2ccc([N+](=O)[O-])cc2)CC1 -6.13%
O=C(CSc1n[nH]c(=O)[nH]c1=O)N/N=C/c1ccccc1O 10.6%
Cc1nn(CC(=O)N2CCOCC2)c(=O)c2ccccc12 -2.23%
CN(NS(=O)(=O)c1ccc(Cl)cc1)c1nc(C(F)(F)F)nc2ccccc12 20%
CC(C)(C)c1ccc(S(=O)(=O)N(CCCN2CCOCC2)Cc2cccs2)cc1 18.9%
Clc1ccc(CNc2ccccc2NCc2ccc(Cl)nc2)cn1 -5.36%
Cc1cc(C)cc(C(=O)NCC(=O)OC(C)C(=O)N(C)c2ccccc2)c1 (stereo not drawn) -2.16%
COc1ccccc1CC1(C)NC(=O)N(CC(=O)N2CCc3ccccc3C2)C1=O (stereo not drawn) 18.7%
COC(=O)NC(/C(C(=O)OC)=C(\C)NCc1ccccc1)c1ccccc1 (stereo not drawn) 28% [at 13.5 µM]
O=c1c2ccccc2nnn1COc1ccc(Cl)cc1Br -1.83%
CCOc1ccc(N=c2cc(-c3ccc(OC)cc3)oc3ccccc23)cc1 -0.147%
CCCOc1ccc(N2C(=O)CC(SC(=NCC)Nc3cccc(F)c3)C2=O)cc1 (stereo not drawn) -3.03%
COc1cc(S(=O)(=O)Nc2ccc(C)cc2)ccc1N=Cc1c(C)c(C#N)c(=O)n(C)c1O -2.12%
O=C(CN(Cc1ccc(F)cc1)C(=O)CCC(=O)Nc1ccccn1)NCc1ccco1 7.94%
Cc1cc(NC(=O)CN2CCN(C/C=C/c3ccccc3)CC2)c([N+](=O)[O-])cc1C 4.81%
CCOC(=O)c1ccc(NC(=O)c2n[nH]c(=O)c3ccccc23)cc1 11.4%
